Reference: the supplement of paper PMC3334620
In all, about 33,000 sequences were measured (“E-score (-0.5 to 0.5)”: median about -0.032, highest 2% from about 0.36 on). This is one part of the list.

Biological target: T1, Sko1 (UniProt Q02100)
T1 sequence: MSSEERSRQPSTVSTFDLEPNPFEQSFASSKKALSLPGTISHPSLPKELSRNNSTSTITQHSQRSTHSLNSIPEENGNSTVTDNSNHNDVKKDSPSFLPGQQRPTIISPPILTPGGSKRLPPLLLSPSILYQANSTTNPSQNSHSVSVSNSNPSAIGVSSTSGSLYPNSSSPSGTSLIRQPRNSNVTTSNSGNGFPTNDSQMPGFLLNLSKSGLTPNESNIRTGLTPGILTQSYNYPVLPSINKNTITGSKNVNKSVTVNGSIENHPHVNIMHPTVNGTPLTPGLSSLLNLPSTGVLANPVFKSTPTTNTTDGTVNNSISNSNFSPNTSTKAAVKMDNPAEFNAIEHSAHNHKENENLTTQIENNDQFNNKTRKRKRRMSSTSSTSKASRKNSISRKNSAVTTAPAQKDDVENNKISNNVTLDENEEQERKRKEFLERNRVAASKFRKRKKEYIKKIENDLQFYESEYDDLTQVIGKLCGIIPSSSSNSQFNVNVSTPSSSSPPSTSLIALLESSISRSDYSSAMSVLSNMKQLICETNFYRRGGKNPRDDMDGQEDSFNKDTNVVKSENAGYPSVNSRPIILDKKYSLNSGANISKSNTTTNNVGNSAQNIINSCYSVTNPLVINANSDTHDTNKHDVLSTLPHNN
Test: PBM E-score (8-mer binding enrichment) (E-score (-0.5 to 0.5)); higher = stronger / more preferred TF binding; most listed sequences are background and not binding sites
Conditions: protein concentration: 200 nM; construct: GST-full length
Description: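 Universal 'all 10-mer' protein binding microarrays (Agilent AMADID 015681) probed with GST-tagged S. cerevisiae TFs (full-length or DBD) made by in vitro transcription/translation (PURExpress), about 100-200 nM. Bound TF was detected with fluorescent anti-GST. Each ungapped 8-mer (which stands for itself and its reverse complement) is scored by the PBM enrichment score (E-score), a modified Wilcoxon-Mann-Whitney statistic from -0.5 to +0.5, computed with the Universal PBM Analysis Suite. Scale: above 0.35 generally sequence-specific binding.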

Row | Sequence | PBM E-score
1 | GCCACAGA | -0.259
2 | CAACTATC | -0.0298
3 | CTGTGCAC | -0.139
4 | CAACAAGG | 0.182
5 | AAAAATGA | 0.209
6 | CGCGCAAA | 0.187
7 | AAGGGCCA | -0.192
8 | TCCACTAA | -0.18
9 | ACTGCGTA | 0.343
10 | ATAACATA | 0.261
11 | CGCCCGAG | -0.261
12 | CTGGGTAA | -0.062
13 | ACTCCTAA | -0.0213
14 | AATGGCCA | -0.221
15 | AGCTTTCA | -0.0116
16 | ACCCCGAT | -0.285
17 | CGACGGTC | -0.224
18 | GGTTGGAC | -0.245
19 | AAGTGCTA | -0.0182
20 | AGCGTCGA | 0.122
21 | CAAACAGC | 0.0209
22 | CACCTTGC | -0.0664
23 | TGGCTACA | 0.0555
24 | CAAACAAA | 0.0906
25 | AAGGGAGA | -0.281

Row | Sequence | PBM E-score
26 | GATCATGA | 0.25
27 | CTCATCAC | 0.0999
28 | GCTGCATA | 0.106
29 | TCCGGTCA | -0.155
30 | AATGTGCT | 0.144
31 | AGGGCCTA | -0.258
32 | ACGCTTTC | -0.0714
33 | CTGGCATC | -0.216
34 | AATCCGCA | -0.0579
35 | CTATGGTC | -0.274
36 | CTGGCGTA | 0.138
37 | AAGGTATC | -0.175
38 | ATACACGC | 0.221
39 | CTGCCCCA | -0.194
40 | ATCGGGTG | -0.0893
41 | GCTATGAA | 0.063
42 | GAAACTAA | 0.102
43 | ATTGTACG | 0.335
44 | GTCCAGTA | -0.0738
45 | AACACAAT | 0.213
46 | CACTACTG | 0.009
47 | GAAGGCCA | -0.252
48 | AATAACAA | 0.194
49 | CCAAGCCA | -0.167
50 | AAGAAAAG | -0.011

Row | Sequence | PBM E-score
51 | TCGTACAA | 0.206
52 | GGGGCGTA | -0.127
53 | CCGGCTGA | -0.096
54 | CACTACCG | -0.205
55 | ACTTTGTC | 0.0337
56 | CCAGCTCA | -0.195
57 | CCCAGATA | -0.285
58 | ATTGACCG | 0.0898
59 | ATCTTATA | 0.099
60 | ACCATTCA | 0.12
61 | CAACGCGG | -0.0308
62 | ACAGCCGC | -0.297
63 | ATAGAGTA | 0.121
64 | TCGACACA | 0.0874
65 | GGTGCGAA | -0.0274
66 | GGTTCAAC | -0.0599
67 | AAGATAGT | -0.0319
68 | ACAAGCCG | -0.174
69 | GAACACGA | 0.0541
70 | GTCGGGAA | -0.105
71 | CCCCCGTA | -0.209
72 | CTACTGAA | 0.0759
73 | TACTTCAA | 0.173
74 | CGGGCAAG | -0.102
75 | CCTACCTC | -0.227

Row | Sequence | PBM E-score
76 | ATGACCCA | 0.112
77 | CCCATAGC | -0.155
78 | CTATATTA | 0.253
79 | CCCTGGAG | -0.194
80 | ATTGTAGG | 0.102
81 | AGGGGACA | -0.312
82 | CCAAATTC | -0.055
83 | ATACGTAC | 0.473
84 | ATTACAGA | 0.0438
85 | AAGAAGTG | -0.0945
86 | CGTTCATC | 0.101
87 | CATGTCTC | -0.0101
88 | CAAGGTAC | 0.0328
89 | CGTCTGAG | 0.0173
90 | CAACGTAA | 0.447
91 | ATAATTGC | 0.16
92 | CGATAAGA | -0.0377
93 | AGAGTTGG | -0.0544
94 | GGTGGCAA | -0.169
95 | CCCTGAGC | -0.145
96 | ACTTCACC | -0.0315
97 | AGCTTATA | -0.00432
98 | CATTGGAA | 0.165
99 | ACCATCAG | -0.131
100 | CAAAGTAG | -0.0207

Row | Sequence | PBM E-score
101 | AATCTCCA | 0.0527
102 | CGGGGGAC | -0.361
103 | ACTATAGG | -0.0997
104 | AGGCAGAC | -0.254
105 | GACTTCTA | -0.19
106 | ACTCGACT | -0.277
107 | CCTAAGTC | -0.227
108 | AGTGAAAT | 0.147
109 | ACGGTGGA | -0.253
110 | GAGCCCAC | -0.173
111 | CCTGAACA | -0.0824
112 | CTGGCCTC | -0.297
113 | CCTCTAAG | -0.185
114 | GGGCGTAA | -0.0261
115 | AACTTCAG | -0.00953
116 | AGGAGTTC | -0.12
117 | GTGATTGA | 0.176
118 | CGCAAACC | 0.00853
119 | AAGTGTAC | 0.121
120 | GGTTGAAA | -0.0145
121 | AAGGAAGA | -0.0665
122 | ACCTGCTG | -0.0289
123 | AAACCCGA | -0.0523
124 | AGGCATGC | -0.0864
125 | CGCGAGAC | 0.125

Row | Sequence | PBM E-score
126 | CCCATGTA | -0.014
127 | GGCCTCTA | -0.311
128 | GAGATAGA | -0.0409
129 | TCCATGGA | 0.0902
130 | TATGCCCA | -0.205
131 | AAATGCAC | 0.0801
132 | ATCAAGTG | -0.0569
133 | TAGTGTAA | 0.135
134 | CCATATTA | 0.0207
135 | TCGCGGCA | -0.261
136 | CACGACTG | -0.224
137 | CCTACGGC | -0.34
138 | ATGCGATC | 0.0716
139 | GATCATAA | 0.203
140 | AGTCCTAC | 0.0377
141 | AAACATAC | 0.14
142 | CATTAATC | 0.155
143 | AGGACCAT | -0.0107
144 | GGAGGTCA | -0.302
145 | CGAGCTAC | -0.0876
146 | AGGTTGCG | -0.00639
147 | TACGGTCA | 0.17
148 | ACCGTTGC | -0.221
149 | ATGTCAAG | 0.187
150 | AAATAGGC | -0.146

Row | Sequence | PBM E-score
151 | AGTATGGG | -0.0617
152 | CTAATAGC | 0.0413
153 | CCCAAATA | -0.00888
154 | TAAATGGA | 0.0937
155 | GAAGACCC | -0.346
156 | AAGTGCGC | 0.03
157 | GTATAAAC | 0.189
158 | GAGGCGCA | -0.182
159 | CATAAGAA | 0.23
160 | GGAGCCTA | -0.278
161 | GCGAACCA | 0.0513
162 | CCACGCAG | 0.057
163 | ATGAAAGG | -0.00144
164 | TAAGAAGA | 0.115
165 | ATACCGAT | -0.272
166 | AAAGATGC | -0.0989
167 | AATTATAA | 0.204
168 | TACCTTGA | 0.0406
169 | CGACTCCC | -0.233
170 | ACCATACT | -0.0266
171 | GGACACCC | -0.312
172 | AAATGAGT | 0.0777
